Measured values taken from PMC4336329 (PLoS ONE, 2015).
Screen size: about 310,000 compounds; about 2,200 (0.71%) showed an effect of 50% or more. The effect is printed as a negative number. This is one part of the list.

What follows are molecules tested against human ether-à-go-go-related gene (hERG) potassium channel (human, UniProt Q12809) (assay: primary screen, population patch clamp on CHO cells stably expressing hERG).
Chain of human ether-à-go-go-related gene (hERG) potassium channel (Q12809 whole entry, looked up): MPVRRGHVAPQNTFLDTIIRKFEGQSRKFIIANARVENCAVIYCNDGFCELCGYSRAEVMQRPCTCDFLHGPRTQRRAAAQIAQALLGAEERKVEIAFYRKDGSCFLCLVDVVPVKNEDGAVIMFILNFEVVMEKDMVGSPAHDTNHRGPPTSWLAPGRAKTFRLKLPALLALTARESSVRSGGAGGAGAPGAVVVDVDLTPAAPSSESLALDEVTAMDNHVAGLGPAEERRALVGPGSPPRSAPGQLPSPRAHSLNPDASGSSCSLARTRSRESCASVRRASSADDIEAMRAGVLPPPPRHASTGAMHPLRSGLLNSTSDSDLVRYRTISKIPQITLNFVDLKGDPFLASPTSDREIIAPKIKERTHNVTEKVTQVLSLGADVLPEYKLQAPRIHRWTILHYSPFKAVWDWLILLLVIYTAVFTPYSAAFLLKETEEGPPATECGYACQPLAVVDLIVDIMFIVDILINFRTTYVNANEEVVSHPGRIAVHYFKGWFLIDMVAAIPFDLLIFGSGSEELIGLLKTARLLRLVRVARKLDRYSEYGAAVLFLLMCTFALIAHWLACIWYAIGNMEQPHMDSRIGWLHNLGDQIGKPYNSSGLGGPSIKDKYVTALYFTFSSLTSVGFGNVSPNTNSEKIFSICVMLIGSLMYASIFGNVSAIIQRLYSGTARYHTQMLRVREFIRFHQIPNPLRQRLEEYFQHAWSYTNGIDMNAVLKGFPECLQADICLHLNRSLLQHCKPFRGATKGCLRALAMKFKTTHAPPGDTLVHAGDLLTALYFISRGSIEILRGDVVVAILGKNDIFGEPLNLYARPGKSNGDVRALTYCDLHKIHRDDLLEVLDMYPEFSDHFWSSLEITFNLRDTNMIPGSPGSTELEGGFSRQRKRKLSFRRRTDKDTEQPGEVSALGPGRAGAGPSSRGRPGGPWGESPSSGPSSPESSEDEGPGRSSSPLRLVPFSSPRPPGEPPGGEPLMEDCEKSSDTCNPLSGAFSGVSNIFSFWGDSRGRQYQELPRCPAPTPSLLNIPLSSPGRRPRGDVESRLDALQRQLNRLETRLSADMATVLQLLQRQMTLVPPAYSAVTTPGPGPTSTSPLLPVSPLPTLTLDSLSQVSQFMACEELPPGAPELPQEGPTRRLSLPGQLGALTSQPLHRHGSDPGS

SMILES | hERG current change (%, negative = inhibition) at 1uM [%]
O=C(CN1C(=O)S/C(=C\c2ccccc2F)C1=O)NC1CCS(=O)(=O)C1 (centres unmarked) | 16.8
CC(C)CC(NC(=O)OC(C)(C)C)C(=O)NCc1ccccc1 (centres unmarked) | 16.4
Cc1ccc(C(=O)CSc2ccc(-c3ccccc3)nn2)cc1 | 11.8
Cc1ccc(C)c(-n2c(CNC(=O)c3ccco3)nnc2SCC(=O)Nc2nccs2)c1 | 12.4
O=S1(=O)CCC(NC(=S)Nc2ccccc2)C1 (centres unmarked) | 14.8
Cc1ccc2c(c1)C(c1ccccc1)NCC(=O)N2 (centres unmarked) | 5.52
Cc1ccc(S(=O)(=O)c2nc(NCCN(C)C)sc2Cl)cc1 | -42.2
CN(C)CCN(C(=O)c1cccc(N2C(=O)CCC2=O)c1)c1nc2ccc(Br)cc2s1.Cl | 0.625
Cc1cccc(Nc2nnc(SCC(=O)Nc3cccc(S(=O)(=O)N4CCCCC4)c3)s2)c1 | 4.56
O=C(NCCCN1CCCC1=O)C(=O)NCC1OCCN1S(=O)(=O)c1ccc(Cl)cc1 (centres unmarked) | 10.3
Cc1ccc2c(C)nc(SC(C(=O)c3ccccc3)c3ccccc3)nc2c1 (centres unmarked) | -4.75
Cc1cc(C)nc(N2CCC(C(=O)NNC(=O)c3ccc(Cl)cc3)CC2)n1 | -4.31
Nc1ncnc(Oc2ccccc2F)c1[N+](=O)[O-] | 13.6
COc1cccc(OC)c1NC(=O)Cn1nc(C)c2ccccc2c1=O | 9.2
COc1cccc(C2N(c3cccc(Cl)c3)C(=O)C3CCCN32)c1OC (centres unmarked) | 4.81
Cc1cccc(NC(=O)c2cnc3sccn3c2=O)c1 | 10.7
N/C(Cc1cccc2ccccc12)=N\OC(=O)COc1ccccc1 | 9.21
COc1ccccc1C(=O)Nc1ccnn1C1CCN(CCCc2ccccc2)CC1 | -88.1
Cc1ccc(O)c(NC(=O)CN(C)S(=O)(=O)c2ccc(Cl)cc2)c1 | -4.16
O=C(Nc1cccc(-c2cccc(F)c2)c1)C1CCN(Cc2ccco2)CC1 | -6.98
Cc1cc(O)c(/C=N/Nc2ccccc2)c(=O)o1 | 13.5
CC(C)(C)c1ccc(-c2nnc(SCC(=O)Nc3sc4c(c3C#N)CCCC4)o2)cc1 | 14.5

SMILES | hERG current change (%, negative = inhibition) at 1uM [%]
O=C(CCN1C(=O)c2ccccc2C1=O)NC(=S)Nc1cccc(Cl)c1 | 9.01
CC(C)CNC(=O)NC1(C(F)(F)F)Oc2ccccc2O1 | 6.18
CCN1C(=O)[C@@H]2[C@@H](c3ccc(-c4ccc5c(c4)OCO5)cc3)N3CCCC[C@@]3(C(=O)OC)[C@@H]2C1=O.O=C(O)C(F)(F)F | 17.8
CCCCCCOC(=O)c1ccc(NC(=O)c2cc(OC)c(OC)c(OC)c2Br)cc1 | 8.55
c1ccc2c(c1)-c1cccc3cccc-2c13 | 21.5
CCOC(=O)Cc1csc(NC(=O)CSc2nnc(C(C)C)n2C)n1 | 17.6
CN1C(=O)/C(=C\c2cc(N=Nc3ccccc3)ccc2O)SC1=S | 5.06
CSc1ccc(CN2CCN(Cc3ccccc3Cl)CC2)cc1 | 1.91
Br.CCOc1ccc2c(c1)nc(SCC(=O)c1cccs1)n2C | 0.0497
CNc1nccc(-c2ccc(Cl)cc2)c1C#N | 16.7
CCCCCC(=O)NNC(=O)c1c(O)c2ccccc2n(CC)c1=O | 8.92
O=C(OCn1nnc2ccccc2c1=O)c1cccc(S(=O)(=O)N2CCOCC2)c1 | 12.9
COC(=O)N(NC(=O)C(O)(CCC(C)C)CCC(C)C)c1ccccc1 | 16.5
Cc1nc2ncnn2c(C)c1Cc1cccc(C(F)(F)F)c1 | 4.45
O=C(/C=C/Nc1ccc(Oc2ccccc2Cl)cc1)c1ccco1 | 2.3
CC1(C(=O)N(c2ccccc2)C(C(=O)NC2CCCC2)c2ccccn2)CC(=O)N=C2C=CC=CN21 (centres unmarked) | 11.7
CCC(C)(C)NC(=O)c1ccc(S(=O)(=O)N2CCCCCC2)cc1 | 4.06
Cl.Clc1ccc(Nc2nc(N3CCOCC3)nc(N3CCOCC3)n2)cc1Cl | 8.3
COc1ccc(C2C(C#N)=C(N)Oc3n[nH]c(C)c32)cc1CN1CCN(c2ccc(F)cc2)CC1 (centres unmarked) | -2.41
O=c1cc(CNCCCO)c2ccccc2[nH]1 | 1.94
Cc1cccnc1NC(=S)NC(=O)c1cncc(Br)c1 | 7.66
CCOC(=O)c1ccc(-c2csc(NC(=O)CN3CCC(C)CC3)n2)cc1 | 7.99

SMILES | hERG current change (%, negative = inhibition) at 1uM [%]
O=[N+]([O-])c1cc(C(F)(F)F)ccc1N1CCCNCC1 | -2.85
O=C(CN1CCN(c2ccc(O)cc2)CC1)Nc1ccc2c(c1)OCCCO2 | 4.42
O=C(CSc1oc(-c2ccccc2)nc1S(=O)(=O)c1ccc(F)cc1)NCC1CCCO1 (centres unmarked) | 2.85
CC(C)(Oc1ccc(Cl)cc1)C(=O)OCc1nc2ccsc2c(=O)[nH]1 | 1.3
COc1ccc(C(=O)Nc2ccccc2-c2nnn(CC(=O)N3CCOCC3)n2)cc1 | -4.6
Cc1ccc(NC(=O)COC(=O)c2ccc(-n3cnnn3)cc2)c(Br)c1 | 6.08
O=C(Nc1ccc(F)cc1)c1cc(-c2ccccc2)no1 | 8.73
Cc1cc(S(=O)(=O)NCc2ccccc2)ccc1OCC(=O)Nc1cccc([N+](=O)[O-])c1 | 5.87
Cc1cc2oc(C(=O)N(Cc3ccco3)C3CCS(=O)(=O)C3)cc(=O)c2cc1Cl (centres unmarked) | -1.14
CCOC(=O)C1CCCN(C(=O)C2CCN(S(=O)(=O)c3cnc[nH]3)CC2)C1 (centres unmarked) | 14.3
c1ccc2c(c1)CNc1ccccc1O2 | 6.23
COc1ccccc1N(C)S(=O)(=O)c1ccc(C(=O)OCC(=O)N2CCCCCC2)cc1 | 8
N#CC1=C(N)OC2=C(C(=O)CCC2)C1c1ccc(OC(=O)N2CCOCC2)cc1 (centres unmarked) | 5.89
O=S(=O)(c1ccc(Cl)cc1)N1CCN(CCc2ccccc2)CC1 | 10.6
Cc1ccc(C2CC(c3cccs3)=NN2C(=O)c2ccco2)o1 (centres unmarked) | -8.32
CCOC(=O)CSc1nnc(NC(=O)c2cccc(S(=O)(=O)N3CCCCC3)c2)s1 | 15.2
COc1ccc(/C=C/c2nc3ccccc3n2C)cc1 | 1.95
CC(C)N(CCO)C(=O)CCc1nnc(Cc2cccc(C(F)(F)F)c2)o1 | -9.61
Cc1ccc(CN(C)C(=O)c2cc(Br)c(Br)s2)o1 | 13.9
COc1ccc(NC(=O)CSc2nnc(Cc3cccn3C)n2-c2ccc(F)cc2)cc1 | -4.59
CCc1nc(Nc2ccccc2)c2nnn(Cc3ccccc3)c2n1 | 10.5
CCN(CC)c1ccc(S(=O)(=O)N2CCOCC2)cc1NC(=O)COC(=O)COc1ccccc1C | 11.5

SMILES | hERG current change (%, negative = inhibition) at 1uM [%]
COc1ccc(S(=O)(=O)N2CCc3ccccc32)cc1C(=O)Nc1cccnc1 | -0.445
COc1cc(/C=N/N=C(\N)c2nonc2N)cc(OC)c1O | 14.1
CCC1(CC)NC(=O)N(CC(=O)OC(C)C(=O)Nc2ccc(Cl)cn2)C1=O (centres unmarked) | -6
O=C(COc1ccc(Cl)cc1)NNC(=O)C(=O)NC1CCCCC1 | 10.9
CC1CCCCN1CCCNC(=O)CN1C(=O)CSc2ccc(S(=O)(=O)N3CCOCC3)cc21 (centres unmarked) | 19.5
COc1cc(C(=O)NCC(c2cccnc2)N2CCN(c3ccc(F)cc3)CC2)cc(OC)c1OC (centres unmarked) | 6.81
CCc1ccccc1NC(=O)c1onc(C)c1Cl | 14.5
CCOC(=O)N1CCN(C(=O)c2cn(CC)c3ccc(S(=O)(=O)N4CCCCC4)cc3c2=O)CC1 | 6.9
CCC(=O)c1ccc(OCC(O)Cn2nnc3ccccc32)cc1 (centres unmarked) | -2.1
COc1ccccc1NC(=O)CSc1ccc(-c2ccccn2)nn1 | 16.8
Cn1c(=O)c2c(nc(Cc3ccccc3)n2C)n(C)c1=O | 11.3
CCc1cc(C(=O)N(CC(C)C)c2c(N)n(Cc3ccccc3)c(=O)[nH]c2=O)sc1C | -11.3
CCn1c(SCC(=O)NCc2ccc3c(c2)OCO3)nnc1-c1cccs1 | -12.2
CC(C)COc1ccc(CN=C(N)N=C(N)N)cc1Cl.Cl | 6.41
Nn1cc(-c2ccccc2)nc1SCC(=O)N1CCN(S(=O)(=O)c2ccccc2)CC1 | 0.236
Cc1cccc(NC(=O)CCNC(=O)c2ccccc2)c1 | 9.4
CCCCNC(=S)NCC(c1ccccc1)c1c[nH]c2ccccc12 (centres unmarked) | 7.13
COc1ccccc1NC(=O)c1nnn(CC(=O)Nc2ccccc2)c1N | 16
CCN(CC)S(=O)(=O)c1ccc(C(=O)Nc2nnc(COC)o2)cc1 | 7.48
COc1ccc(-c2ccc(CCC(=O)O)n2NC(=O)c2ccc(C(C)(C)C)cc2)cc1 | 14.4
